{
  "source": "PubChem BioAssay AID1963320",
  "about": "(National Center for Advancing Translational Sciences (NCATS), 2024)",
  "note": "In all, about 1,300 compounds went through this assay and about 560 (43%) were called active. The set was probably picked from earlier hits. Inconclusive means that the source gave no clear call. Such entries were picked first, then a sample of the others. Calls come from the whole dose curve; as a rule, active = well fitted inhibition curve with a large enough effect; inconclusive = small, poorly fitted or top-dose-only effect; inactive = flat fitted curve, though single readings scatter. Potencies beside an inconclusive call are fits to weak or partial responses and may not hold up. % is set by controls: 0 for no effect and ±100 for the full control effect; potency is the fitted concentration of half-maximal effect; tags give direction and shape of the fitted curve. Note: nearly all actives have a fitted effect of over 70% in size.",
  "data": [
    {"target": "Luciferin 4-monooxygenase (Photinus pyralis) (UniProt P08659)", "sequence (P08659 whole entry, looked up)": "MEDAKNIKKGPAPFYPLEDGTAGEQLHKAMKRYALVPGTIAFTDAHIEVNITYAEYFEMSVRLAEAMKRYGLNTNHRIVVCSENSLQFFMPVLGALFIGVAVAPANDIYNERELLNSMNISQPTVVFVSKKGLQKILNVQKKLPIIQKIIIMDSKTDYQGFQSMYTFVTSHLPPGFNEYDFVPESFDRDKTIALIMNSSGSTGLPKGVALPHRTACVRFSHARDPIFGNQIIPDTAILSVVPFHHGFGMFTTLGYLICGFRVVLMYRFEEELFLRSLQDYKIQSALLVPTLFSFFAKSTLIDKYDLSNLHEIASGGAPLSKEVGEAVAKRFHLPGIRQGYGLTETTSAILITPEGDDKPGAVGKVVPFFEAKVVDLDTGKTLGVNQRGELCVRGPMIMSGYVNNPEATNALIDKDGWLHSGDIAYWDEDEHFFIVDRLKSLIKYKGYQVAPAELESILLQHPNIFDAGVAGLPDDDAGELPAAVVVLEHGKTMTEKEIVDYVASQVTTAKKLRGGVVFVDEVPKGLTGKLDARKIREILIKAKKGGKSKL", "test": "Firefly luciferase (FLuc-C-HiBiT) enzymatic inhibition screen - Functional assay", "details": "purified FLuc-C-HiBiT enzyme, luciferin luminescence; series mostly up to 32.7 µM; activity change, negative = inhibition: at the top concentration", "in_short": "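FLuc-C-HiBiT enzyme at 10 nM final with 10 uM ATP was preincubated with compounds for >30 min at room temperature in the dark. D-luciferin was then added at 10 uM final (KM), and luminescence was imaged by CCD camera after 5-10 min.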", "values": [
      {"smiles": "Cc1ccc(-c2cc(N)n(-c3ccc(C)cc3)n2)cc1", "Potency": "inconclusive: 9.89 µM [inhibitor, partial curve]"},
      {"smiles": "COC(=O)c1c(-c2cccs2)csc1NC(=O)c1ccc(Br)cc1", "Potency": "active: 11.1 µM"},
      {"smiles": "Nc1nc2c([nH]c(=O)n2C2OC(CO)C(O)C2O)c(=O)[nH]1", "note": "(stereo not given)", "activity change, negative = inhibition": "inactive: 0.455%"},
      {"smiles": "COc1ccc(-c2cnc3[nH]cc(CC(=O)N4CCN(c5ccccn5)CC4)c3c2)cc1", "Potency": "inconclusive: 18 µM [inhibitor, partial curve]"},
      {"smiles": "O=C(CSc1nnc2[nH]c(=O)cc(-c3ccccc3)n12)Nc1ccc(OC(F)(F)F)cc1", "Potency": "active: 7 µM"},
      {"smiles": "CC(C)c1nc2c(c(-c3ccc(O)cc3)n1)CN(Cc1ccccc1)CC2", "activity change, negative = inhibition": "inactive: -4.69%"},
      {"smiles": "Cc1cc(NC(=O)c2ccccc2F)ccc1-c1nc2ccccc2s1", "Potency": "inconclusive: 2.48 µM [inhibitor, full curve]"},
      {"smiles": "Cc1c(NC(=O)c2ccc(I)o2)cccc1-c1nc2ccccc2s1", "Potency": "active: 7 µM"},
      {"smiles": "O=C(Nc1ccccc1-c1nc2ccccc2s1)c1ccc(F)cc1", "activity change, negative = inhibition": "inactive: -7.28%"},
      {"smiles": "O=C(Nc1ccccc1C(=O)O)c1ccccc1", "Potency": "inconclusive: 12.4 µM [inhibitor, single point]"},
      {"smiles": "O=C(Nc1ccc2c(c1)OCCO2)N1CCC(c2nc(C3CCOCC3)no2)CC1", "Potency": "inconclusive: 11.1 µM [inhibitor, partial curve]"},
      {"smiles": "COc1cc(OC)cc(C(=O)Nc2ccc(-c3nc4ccccc4s3)c(C)c2)c1", "activity change, negative = inhibition": "inactive: 1.08%"},
      {"smiles": "O=C(C1CCC1)N1c2ccccc2CC1c1noc(C2CCOCC2)n1", "note": "(stereo not given)", "Potency": "inconclusive: 9.89 µM [inhibitor, partial curve]"},
      {"smiles": "CC(C)c1noc(-c2nc(-c3ccc4c(c3)OCO4)no2)n1", "Potency": "active: 7.85 µM"},
      {"smiles": "Cc1c(NC(=O)c2cccc(Cl)c2Cl)cccc1-c1nc2ccccc2s1", "activity change, negative = inhibition": "inactive: -18.3%"},
      {"smiles": "O=C(NCCc1ccccc1Cl)c1ccc2c(c1)nc1n2CCOC1", "Potency": "active: 7 µM"},
      {"smiles": "Cc1ccc(Nc2c(-c3ccc(N(C)C)cc3)nc3nc[nH]n23)cc1", "Potency": "inconclusive: 12.4 µM [inhibitor, partial curve, poor fit]"},
      {"smiles": "COC1CCOC2(CCN(C(=O)CCCc3ccccc3)CC2)C1", "note": "(stereo not given)", "Potency": "inconclusive: 15.7 µM [inhibitor, single point]"},
      {"smiles": "CCCCCSc1nnc(-c2ccc(Br)cc2)o1", "activity change, negative = inhibition": "inactive: -6.49%"},
      {"smiles": "COc1ccc(NC(=O)N[C@@H]2C=C[C@@H](c3c(C)nn(-c4ccc(C(C)C)cc4)c3C)C2)cc1", "activity change, negative = inhibition": "inactive: -11.4%"},
      {"smiles": "CCn1ccnc1C1CCN(c2nc3ccccc3s2)CC1", "Potency": "inconclusive: 9.89 µM [inhibitor, partial curve]"},
      {"smiles": "COc1cccc(Nc2ncc(-c3cccnc3)c3c2OCC3)c1", "Potency": "inconclusive: 18 µM [inhibitor, partial curve]"},
      {"smiles": "Cc1ccc2nc(C(=O)N3CCCC3c3cc(C(C)C)on3)cn2c1", "note": "(stereo not given)", "Potency": "inconclusive: 15.7 µM [inhibitor, partial curve]"},
      {"smiles": "Clc1ccc(-c2nc(-c3ccccn3)no2)cc1Cl", "Potency": "active: 5.56 µM"},
      {"smiles": "CCCc1ccc2oc(C(=O)NCCc3nncn3CC)c(C)c2c1", "Potency": "inconclusive: 12.4 µM [inhibitor, partial curve]"},
      {"smiles": "COc1ccccc1C(=O)NCCn1ccn2nc(-c3ccc(C)cc3C)cc2c1=O", "Potency": "inconclusive: 9.89 µM [inhibitor, partial curve]"},
      {"smiles": "O=C1Nc2ccc(C(=O)c3ccco3)cc2/C1=C/c1cc(Cl)c(O)c(Cl)c1", "Potency": "active: 11.1 µM"},
      {"smiles": "O=C1CCC2(C(=O)NCCc3ccccc3)CCCC=C2N1c1ccccc1", "note": "(stereo not given)", "Potency": "inconclusive: 15.7 µM [inhibitor, single point]"},
      {"smiles": "O=C(Nc1ccc(Cl)cc1)Nc1ccc2n(c1=O)C[C@H]1C[C@@H]2CN(C(=O)c2ccc3ccccc3c2)C1", "Potency": "inconclusive: 12.4 µM [inhibitor, partial curve, poor fit]"},
      {"smiles": "CC(C)(C)c1ccc(C(=O)Nc2ccc([C@H]3OCC(=O)N[C@@H]3CO)cc2)cc1", "Potency": "inconclusive: 16.1 µM [inhibitor, partial curve]"},
      {"smiles": "CN(Cc1cccnc1)c1ccc(-c2nc(COc3ccccc3)no2)cn1", "Potency": "inconclusive: 12.4 µM [inhibitor, partial curve]"},
      {"smiles": "CC(C)C(=O)NC1CCN(Cc2ccc(-c3nc4cccc(Cl)c4s3)cc2)CC1", "activity change, negative = inhibition": "inactive: -6.1%"},
      {"smiles": "CN(c1ccccc1)c1ccc2ncn(C3CC3)c(=O)c2n1", "Potency": "active: 5.68 µM"},
      {"smiles": "Cc1ccc(NC(=O)c2ncoc2-c2ccco2)cc1Cl", "Potency": "inconclusive: 6.24 µM [inhibitor, full curve]"},
      {"smiles": "COc1ccc(-c2nc(C)c(CCNC(=O)c3c(F)cccc3F)s2)cc1", "activity change, negative = inhibition": "inactive: -19.6%"},
      {"smiles": "Cc1ccc2nc(-c3ccc(NC(=O)c4ccccc4S(C)(=O)=O)cc3)sc2c1", "Potency": "inconclusive: 11.1 µM [inhibitor, partial curve, poor fit]"},
      {"smiles": "Cc1ncc(C(=O)NCc2ccc3[nH]c(-c4ccccc4F)c(C)c3c2)c(C)n1", "Potency": "active: 7.85 µM"},
      {"smiles": "COc1ccc(-c2noc(-c3ccc(C)cc3Cl)n2)cc1OC", "Potency": "inconclusive: 1.24 µM [inhibitor, full curve, poor fit]"},
      {"smiles": "Fc1ccc(NCc2ccccc2-c2nnc(-c3ccccc3Cl)o2)cc1Cl", "Potency": "inconclusive: 15.7 µM [inhibitor, partial curve, poor fit]"},
      {"smiles": "CCOc1ccc(-c2cc(CCCC(=O)NCCc3ccc(SC)cc3)no2)cc1", "Potency": "active: 3.13 µM"},
      {"smiles": "O=C(c1ccccn1)N1CCC(Oc2ccc(-c3noc(-c4ccccc4)n3)cc2)C1", "note": "(stereo not given)", "Potency": "inconclusive: 11.1 µM [inhibitor, partial curve]"},
      {"smiles": "COCCN1CCNc2cc(Nc3cccc(OC)c3)ncc2C1", "Potency": "inconclusive: 18 µM [inhibitor, partial curve]"},
      {"smiles": "CN1CCN(c2ccc(-c3cc4c(ccn4C)c(C(=O)NCCN4CCNC4=O)n3)cc2)CC1", "Potency": "inconclusive: 12.4 µM [inhibitor, partial curve]"},
      {"smiles": "Cc1c(C(=O)Nc2ccc(C(=O)O)cc2)nnn1-c1ccccc1", "Potency": "active: 0.0785 µM"},
      {"smiles": "COc1cccc(C(=O)Nc2cccc(OCc3cc(=O)n4c5c(sc4n3)CCCC5)c2)c1", "Potency": "inconclusive: 9.89 µM [inhibitor, partial curve]"}
    ]}
  ]
}
